Measured values: PubChem BioAssay AID588855 (National Center for Advancing Translational Sciences (NCATS), 2011)
Out of some 410,000 compounds screened, about 5,000 (1.2%) were called active. Inconclusive means that the source gave no clear call. Such entries were picked first, then a sample of the others. The call rests on the fitted dose curve; in most records, active means well fitted inhibition curve with a large enough effect; inconclusive means small, poorly fitted or top-dose-only effect; inactive means no such curve, though single readings can be large or run the other way. Potencies of inconclusive entries are doubtful fits and often do not repeat.

assay: qHTS for Inhibitors of TGF-b; conditions: HepG2 CAGA-GFP TGF-b/SMAD3 reporter, GFP fluorescence, 18 h, TGF-beta stimulated, 500 pg/mL final; series mostly up to 46.1 µM; activity, negative = inhibition: at the top concentration; further: nearly all actives have a fitted effect of over 65% in size
Method in brief: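 Read-out: total well GFP (ex488/em500-530) summed from mean per-cell fluorescence. Cells: HEPG2 CAGA-GFP, 1% FBS DMEM, 18 h at 37 degrees C with 500 pg/mL final TGF-beta. Unstimulated wells served as the full-inhibition control; stimulated DMSO wells = 0%.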
On the % scale 0 is the no-effect control and ±100 the full control effect; potency means the concentration at half of the fitted maximal effect; tags describe the fitted curve by direction and shape.

| SMILES | Potency | activity, negative = inhibition |
| --- | --- | --- |
| COc1ccc(S(=O)(=O)N2CCC(C(=O)NCc3ccco3)CC2)cc1C | inconclusive: 35.5 µM [inhibitor, single point] |  |
| Cc1cc(-c2nsc(=O)o2)c(S(C)(=O)=O)s1 |  | inactive: 14.1% |
| O=C(NCCN1CCOCC1)c1cnn2c1NC(c1cccs1)CC2C(F)(F)F (stereo not given) |  | inactive: 3.4% |
| Cc1ncoc1C(=O)NC1CC(C)(C)Cc2c1cnn2-c1ccccc1 (stereo not given) |  | inactive: 2.59% |
| Cc1ccc(-c2nc(CS(=O)(=O)CC(=O)NCc3ccc(Cl)cc3)c(C)o2)cc1 | inconclusive: 8.91 µM [inhibitor, partial curve, poor fit] |  |
| COc1cccc(CNc2ccc(S(=O)(=O)Nc3nccs3)cc2)c1O | inconclusive: 11.2 µM [inhibitor, partial curve, poor fit] |  |
| COc1ccccc1N1CCN(CCc2n[nH]c(=S)n2-c2ccccc2)CC1 |  | inactive: 1.52% |
| COc1cccc(Cn2c(SCC(=O)N(C)c3ccccc3)nc3ccccc32)c1 | inconclusive: 11.2 µM [inhibitor, partial curve, poor fit] |  |
| Cc1ccc(N/C(N)=N/c2nc(C)cc(N3CCCCC3)n2)c(C)c1 | inconclusive: 12.6 µM [inhibitor, single point] |  |
| CCCCCOC(=O)C1=C(C)Nc2nnnn2C1c1ccc(OC)c(OC)c1OC (stereo not given) | inconclusive: 3.98 µM [inhibitor, single point] |  |
| CCc1ccc(OC)c(S(=O)(=O)Nc2ccc(Cc3ccncc3)cc2)c1 | inconclusive: 12.6 µM [inhibitor, single point] |  |
| CCCC/C(C)=N/NC(=O)c1cn(-c2ccccc2)nc1-c1ccccc1 | inconclusive: 20 µM [inhibitor, single point] |  |
| O=C(Nc1ccc(C(F)(F)F)cc1)C1CCN(c2cnccn2)CC1 | inconclusive: 2.82 µM [inhibitor, full curve] |  |
| COc1ccc(CCNC(=O)c2nc(SCc3ccc(C)cc3)ncc2Cl)cc1OC | inconclusive: 14.1 µM [inhibitor, single point] |  |
| CCn1c(=NC(=O)CS(=O)(=O)c2ccccc2)sc2cccc(OC)c21 |  | inactive: -12.7% |
| CC(C)Oc1ccc(C(CC(=O)O)NC(=O)C(Sc2ccccc2)c2ccccc2)cc1 (stereo not given) | inconclusive: 5.62 µM [inhibitor, single point] |  |
| CCCCC(O)(CCCC)C(=O)NN(C(=O)CCl)c1ccccc1 | inconclusive: 20 µM [inhibitor, single point] |  |
| O=C(NCCc1ccc(F)cc1)c1coc(=O)c(Br)c1 | inconclusive: 28.2 µM [inhibitor, single point] |  |
| CCc1ccc(-c2cn3c(n2)SCC3)cc1 |  | inactive: -1.24% |
| Cc1cc(O)c(-c2cc(C(=O)Nc3ccc(S(=O)(=O)N4CCOCC4)cc3)[nH]n2)cc1C | inconclusive: 35.5 µM [inhibitor, single point] |  |
| Cn1c(-[n+]2c(-c3ccccc3)cc(-c3ccccc3)cc2-c2ccccc2)nc2c([N+](=O)[O-])cccc21 | inconclusive: 25.1 µM [inhibitor, single point] |  |
| CC1=NC(=O)C(N=Nc2cccc(O)c2)N1c1ccccc1 (stereo not given) | inconclusive: 6.31 µM [inhibitor, partial curve, poor fit] |  |
| Clc1ccc(OCc2nnc3n2CCCCC3)c(Cl)c1 | inconclusive: 11.2 µM [inhibitor, partial curve, poor fit] |  |

| SMILES | Potency | activity, negative = inhibition |
| --- | --- | --- |
| COc1cc(C(=S)N2CCN(c3cccc(Cl)c3)CC2)ccc1O |  | inactive: -21.6% |
| Nc1ccc(S(=O)C(F)(F)F)cc1 (stereo not given) | inconclusive: 6.31 µM [inhibitor, single point] |  |
| O=C(Cn1cnc2c(cnn2-c2ccc(F)cc2)c1=O)N1CCN(c2ccccc2F)CC1 |  | inactive: -3.39% |
| C=CCN=c1scc(-c2ccccc2)n1/N=C/c1ccccn1 | inconclusive: 1.58 µM [inhibitor, full curve] |  |
| CCN(CCCNC(=O)Cn1ncc2c(=O)oc3ccccc3c21)c1cccc(C)c1 | inconclusive: 22.4 µM [inhibitor, single point] |  |
| Cc1ccc(OCC(=O)N/N=C\c2ccc(-c3cccc(C(=O)O)c3)o2)c(C)c1 | inconclusive: 35.5 µM [inhibitor, single point] |  |
| CCCNC(=O)c1cnc2sc(N3CCCCCC3)nn2c1=O |  | inactive: -17.2% |
| CC(C)(C)c1ccc(C(=O)C2CCCN(C(=O)CN3CCCC3=O)C2)cc1 (stereo not given) |  | inactive: -20.7% |
| N=c1sccn1CC(=O)NCCc1ccc(Cl)cc1Cl |  | inactive: 8.77% |
| O=C(COC(=O)c1ccccc1NS(=O)(=O)c1cccs1)NCC12CC3CC(CC(C3)C1)C2 | inconclusive: 20 µM [inhibitor, single point] |  |
| COc1cc(C(=O)NC2CC(C)(C)CC(C)(C)C2)ccc1OC1CCN(C(C)=O)CC1 | inconclusive: 35.5 µM [inhibitor, single point] |  |
| O=C(CN1CCN(c2ccc(F)cc2)CC1)Nc1cccc(C(F)(F)F)c1 | inconclusive: 35.5 µM [inhibitor, single point] |  |
| N#Cc1ccc(OCC(=O)OCC(=O)NC2CC2)cc1 |  | inactive: 2.49% |
| C=C1CCC[C@]2(C)C[C@H]3OC(=O)C(CN4CCCCC4CO)[C@H]3CC12 (stereo not given in full) | inconclusive: 35.5 µM [inhibitor, single point] |  |
| Fc1ccccc1-c1nc2ccccc2[nH]1 |  | inactive: 0.263% |
| O=C1Nc2ccccc2Nc2ccccc21 | inconclusive: 5.62 µM [inhibitor, single point] |  |
| O=[N+]([O-])c1cc(Br)c(Nc2ccccc2)c([N+](=O)[O-])c1 | active: 17.8 µM |  |
| CC(C)NC(=O)c1cc2cc([N+](=O)[O-])ccc2s1 | inconclusive: 7.94 µM [inhibitor, partial curve, poor fit] |  |
| COc1ccc(S(=O)(=O)Cc2ccc(C(=O)N3CC(C)CC(C)C3)o2)cc1 (stereo not given) | inconclusive: 3.55 µM [inhibitor, single point] |  |
| CN(CC(=O)Nc1ccccc1Cl)C(=O)CSc1ncc(C(F)(F)F)cc1Cl |  | inactive: 13.3% |
| CCn1c(C)c(C)c2cc(C(=O)NCc3ccc(OC)cc3OC)ccc21 | inconclusive: 35.5 µM [inhibitor, single point] |  |
| C[C@H]1CN([C@@H](C)CO)C(=O)c2cc(Br)cnc2O[C@H]1CN(C)C(=O)C1CC1 |  | inactive: 8.4% |
